The whole screen tested about 72,000 compounds, of which about 710 (0.99%) were called active. Inconclusive means that the source gave no clear call. Such entries were picked first, then a sample of the others. The call rests on the fitted dose curve; in most records, active means well fitted inhibition curve with a large enough effect; inconclusive means small, poorly fitted or top-dose-only effect; inactive means no such curve, though single readings can be large or run the other way. Potencies of inconclusive entries are left out as doubtful fits.
Assay: qHTS Assay for Inhibitors of the ERK Signaling Pathway using a Homogeneous Screening Assay; further: nearly all actives have a fitted effect of over 55% in size
Conditions: HEK293-V1b, vasopressin-stimulated pERK AlphaScreen; activity, negative = inhibition: at 57.5 µM (top of the series) unless noted
How it was run: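 HEK293 cells stably expressing V1b receptor, preincubated 30 min at 37 °C with compound, then stimulated 5 min with 25 nM vasopressin. Phospho-ERK by AlphaScreen SureFire after 5 h RT; normalized to DMSO and vasopressin; AC50 by Hill fit.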
For `Cc1nccn1-c1ncnc2sc3c(c12)CCCC3`, the Potency was inconclusive [inhibitor, partial curve, poor fit]. In the case of `Cc1[nH]n(-c2ccccc2)c(=O)c1/C=N/c1ccccn1`, the Potency is reported as inconclusive [inhibitor, single point]. In the case of `CCCN(CCC)C(=O)SCC`, the Potency is reported as “inactive”. For `O=C1CC(Nc2ccc(N3CCOCC3)cc2)C(=O)N1C1CCCCC1` (stereo not drawn), the Potency was inconclusive [inhibitor, partial curve]. In the case of `Cc1oc(-c2ccc(F)cc2)cc1-c1nn2c(-c3ccoc3C)nnc2s1`, the Potency is reported as inconclusive [inhibitor, partial curve]. With `O=C(NCCCn1ccnc1)c1cc(-c2ccc3c(c2)OCO3)on1` the Potency was inconclusive [inhibitor, partial curve]. In the case of `N#Cc1c(N)nc(SCc2ccccc2)c(C#N)c1-c1ccco1`, the Potency is reported as “inactive”. In the case of `CCCn1c(SCC(=O)Nc2nnc(CC)s2)nnc1-c1ccco1`, the activity, negative = inhibition is reported as inconclusive: -38.5% [inhibitor]. With `CCc1ccc(C2CC(c3cccc(OC)c3)n3nc(N)nc3N2)cc1` (stereo not drawn) the Potency was inconclusive [inhibitor, single point]. In the case of `CC(=O)N1c2ccccc2C(=O)C1N1CCCCC1` (stereo not drawn), the Potency is reported as “inactive”. With `CN(C)C(=O)c1ccc(-c2ccc3ncnc(Nc4ccccc4)c3c2)cc1` the Potency was inconclusive [inhibitor, single point]. With `C/C=C/COC(=O)c1[nH]c2c(c1C)C(=O)CC(c1ccc(N(C)C)cc1)C2` (stereo not drawn) the Potency was inconclusive [inhibitor, partial curve]. For `CC1=C(SCCC#N)S/C(=C2\SC(C)=C(SCCC#N)S2)S1`, the Potency was “inactive”. In the case of `CCN(CC)c1ccc(CNc2ccc(Br)cn2)cc1`, the Potency is reported as inconclusive [inhibitor, single point]. For `O=S(=O)(Nc1ccccn1)c1ccc(C2CCCCC2)cc1`, the Potency was inconclusive [inhibitor, full curve]. For `O=C1C2C3C=CC(C3=C3CCCCC3)C2C(=O)N1Cc1ccccc1` (stereo not drawn), the Potency was inconclusive [inhibitor, single point]. In the case of `O=C(CN(Cc1ccc(F)cc1)S(=O)(=O)c1ccccc1)N1CCCCC1`, the Potency is reported as “inactive”. For `O=C(O)[C@@H]1[C@@H]2C[C@H]3c4[nH]c5ccccc5c4CCN3C[C@@H]2CC[C@@H]1O`, the Potency was “inactive”. With `COc1cc2cc(CN(Cc3nnnn3C3CCCC3)C3CCCC3)c(=O)[nH]c2cc1OC` the Potency was inconclusive [inhibitor, partial curve]. In the case of `O=C1CCC(=O)N1c1ccc(CSc2nnnn2C2CCCCC2)cc1`, the Potency is reported as active: 15.8 µM. With `COC(=O)c1ccc(OCCn2cnc3ccccc3c2=O)cc1` the Potency was inconclusive [inhibitor, partial curve]. In the case of `CCOc1ccccc1NC(=O)CCSc1nc2n[nH]c(C)c2c(=N)n1-c1ccccc1Cl`, the Potency is reported as “inactive”. In the case of `CCCCn1c(=O)n(CC(=O)Nc2ccc(C)c(Cl)c2)c(=O)c2c1ncn2Cc1ccco1`, the Potency is reported as inconclusive [inhibitor, single point]. With `CCn1c(COc2ccccc2C)nnc1SCC(=O)CC(=O)Nc1ccccc1` the Potency was inconclusive [inhibitor, single point]. In the case of `Cc1ccc(C)c(S(=O)(=O)Nc2ccc3scnc3c2)c1`, the Potency is reported as inconclusive [inhibitor, partial curve, poor fit]. In the case of `O=c1c2ccccc2cnn1-c1nc2ccccc2s1`, the Potency is reported as “inactive”. With `O=C1OC2(c3cc(Br)c(O)c(Br)c3Oc3c2cc(Br)c(O)c3Br)c2c(Cl)c(Cl)c(Cl)c(Cl)c21` the Potency was inconclusive [inhibitor, partial curve, poor fit]. For `O=C(NCc1ccc2c(c1)OCO2)c1ccc(CS(=O)(=O)c2ccc(Br)cc2)o1`, the Potency was inconclusive [inhibitor, partial curve]. For `Cc1nc2ncnn2c(N2CCCC(C(=O)Nc3ccc4c(c3)CCC4)C2)c1C` (stereo not drawn), the Potency was inconclusive [inhibitor, partial curve]. For `CCNc1ncc2nc(-c3cn(C)c4ccccc34)c(=O)n(C[C@H]3CCCO3)c2n1`, the Potency was inconclusive [inhibitor, full curve]. In the case of `Cc1cc(C)nc(Nc2ccc(N3CCCC3)cc2)n1`, the Potency is reported as inconclusive [inhibitor, partial curve, poor fit]. In the case of `COc1cccc(N2CCN(CC(=O)Nc3nc4c(s3)CC(C)CC4)CC2)c1` (stereo not drawn), the Potency is reported as inconclusive [inhibitor, full curve]. With `COc1ccc(C(=O)Nn2c(SCC(=O)NCc3ccco3)nc3ccccc3c2=O)cc1` the Potency was inconclusive [inhibitor, single point]. In the case of `Cn1cccc1C(=O)N1CCC2(CC1)CCN(c1ccccn1)CC2`, the activity, negative = inhibition is reported as inconclusive: -32.8% [inhibitor]. In the case of `Cc1nonc1NC(=O)CSc1nc(C2CCCCC2)nc2ccccc12`, the Potency is reported as “inactive”. For `CCOC(=O)N1CCN(C(=O)CSc2nnc(-c3ccc(C)c(C)c3)o2)CC1`, the Potency was inconclusive [inhibitor, partial curve]. For `CCOC(=O)c1ccc(NC(=O)c2ccc3c(c2)OCO3)cc1`, the Potency was “inactive”. With `Cc1nnc(SCCCn2c(N3CCN(c4ccccc4)CC3)nc3c2c(=O)[nH]c(=O)n3C)s1` the Potency was inconclusive [inhibitor, single point]. For `C=C(C)COc1ccc(-c2n[nH]c(C)c2-c2ccccc2OC)c(O)c1`, the Potency was inconclusive [inhibitor, partial curve]. With `CCOc1ccc2nc(NCCNC(=O)CC)c(C#N)cc2c1` the Potency was “inactive”. With `C#CCCCO/N=C1/[C@H]2O[C@@H]2[C@@H](O)[C@H]2[C@H]1CCn1c(=O)n(Cc3cc4c(cc3Cl)OCO4)c(=O)n12` the activity, negative = inhibition was inactive: 5.8% [at 11.5 µM]. With `COc1cccc2c1[C@@H]1CN(CCCCn3c(=O)[nH]c4c(sc5ncc(-c6ccccc6)nc54)c3=O)C[C@H]1CO2` the Potency was inconclusive [inhibitor, full curve]. For `C=CCNC(NC(=O)c1ccccc1)(C(=O)OCC)C(F)(F)F` (stereo not drawn), the Potency was inconclusive [inhibitor, partial curve].

— PubChem BioAssay AID995 (National Center for Advancing Translational Sciences (NCATS), 2007)
On the % scale 0 is the no-effect control and ±100 the full control effect; potency means the concentration at half of the fitted maximal effect; tags describe the fitted curve by direction and shape.
